Results taken from article PMC4513104.
Substitutions are numbered along the chain they refer to. No constants are given. Whether binding was seen depends on the method and setting. For part of these data: In cells and extracts the contact can be indirect. Some entries that bind do so weakly or less than the wild type. One block for each substance: values may come before it.

By UniProt entry, the sequences of proteins in these tests, tags left out.
UniProt Q01469: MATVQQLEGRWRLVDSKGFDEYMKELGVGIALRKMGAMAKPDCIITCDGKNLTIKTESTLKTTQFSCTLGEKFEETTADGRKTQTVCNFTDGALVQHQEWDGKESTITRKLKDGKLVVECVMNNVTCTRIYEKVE
UniProt P05413: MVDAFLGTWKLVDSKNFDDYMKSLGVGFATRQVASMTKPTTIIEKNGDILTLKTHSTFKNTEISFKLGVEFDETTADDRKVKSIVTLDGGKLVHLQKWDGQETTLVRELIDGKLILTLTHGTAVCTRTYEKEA
UniProt Q9DBL9: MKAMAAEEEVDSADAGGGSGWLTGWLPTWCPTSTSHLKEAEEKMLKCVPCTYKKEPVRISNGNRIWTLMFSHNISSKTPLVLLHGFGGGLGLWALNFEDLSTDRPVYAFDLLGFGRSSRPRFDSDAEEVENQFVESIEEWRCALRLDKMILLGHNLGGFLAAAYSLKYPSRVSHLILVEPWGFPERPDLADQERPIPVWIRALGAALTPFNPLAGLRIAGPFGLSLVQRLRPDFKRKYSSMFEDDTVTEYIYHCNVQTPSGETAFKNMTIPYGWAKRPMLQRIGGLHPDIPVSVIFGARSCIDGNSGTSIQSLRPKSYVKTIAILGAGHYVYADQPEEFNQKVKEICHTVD
UniProt P00722: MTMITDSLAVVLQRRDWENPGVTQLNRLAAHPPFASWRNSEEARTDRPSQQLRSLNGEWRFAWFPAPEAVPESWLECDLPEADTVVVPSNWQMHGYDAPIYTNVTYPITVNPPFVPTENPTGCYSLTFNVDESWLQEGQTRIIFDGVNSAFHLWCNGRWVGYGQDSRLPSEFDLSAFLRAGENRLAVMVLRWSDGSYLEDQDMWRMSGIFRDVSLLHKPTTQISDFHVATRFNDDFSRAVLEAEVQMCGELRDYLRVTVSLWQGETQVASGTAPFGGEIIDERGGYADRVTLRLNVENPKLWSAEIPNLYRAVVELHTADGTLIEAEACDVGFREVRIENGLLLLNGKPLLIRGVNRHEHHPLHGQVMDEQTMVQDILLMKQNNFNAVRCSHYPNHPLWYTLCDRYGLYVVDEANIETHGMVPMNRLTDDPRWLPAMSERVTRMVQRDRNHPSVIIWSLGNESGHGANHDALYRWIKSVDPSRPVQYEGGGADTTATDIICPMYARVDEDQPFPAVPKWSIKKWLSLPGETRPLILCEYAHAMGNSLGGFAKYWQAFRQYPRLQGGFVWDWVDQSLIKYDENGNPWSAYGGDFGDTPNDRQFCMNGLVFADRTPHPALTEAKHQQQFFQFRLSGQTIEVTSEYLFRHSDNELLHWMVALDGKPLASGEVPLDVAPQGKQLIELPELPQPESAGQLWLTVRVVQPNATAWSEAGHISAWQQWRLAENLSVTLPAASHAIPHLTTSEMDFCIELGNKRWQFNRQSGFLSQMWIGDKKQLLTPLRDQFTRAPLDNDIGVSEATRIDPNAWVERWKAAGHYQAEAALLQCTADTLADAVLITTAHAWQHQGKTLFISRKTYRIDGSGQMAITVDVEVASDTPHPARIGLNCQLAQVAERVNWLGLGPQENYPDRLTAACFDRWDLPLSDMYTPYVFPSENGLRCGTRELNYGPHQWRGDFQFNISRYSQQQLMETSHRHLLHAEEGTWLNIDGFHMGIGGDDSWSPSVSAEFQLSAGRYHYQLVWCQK

What was measured:
[1] = target: T1, Fatty acid-binding protein, adipocyte (mouse) (UniProt P04117); assay: co-IP; endogenous proteins in gonadal WAT lysate of an overnight fasted C57BL/6 mouse (700 μg of total protein; 50 mM Tris, pH 7.4, 150 mM NaCl, 1% Nonidet P-40, 1 mM EDTA); monoclonal antibodies against A-Fabp, Cgi-58 or Gfp (control), protein A/G-Sepharose, Western blotting
T1 sequence: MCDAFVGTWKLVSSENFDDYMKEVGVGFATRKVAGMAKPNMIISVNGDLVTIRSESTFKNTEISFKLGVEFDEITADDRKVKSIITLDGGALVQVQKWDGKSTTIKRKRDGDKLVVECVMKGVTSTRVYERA

A-Fabp^D77G (human) = target: T2, A-Fabp^D77G (human) (UniProt P15090); assay: ELISA; solid phase assay: 96-well polystyrene plates coated overnight with 3 μg of purified Fabp, blocked with 5% delipidated BSA in TBS (50 mM Tris, pH 8.0, 150 mM NaCl); COS-7 cell extracts (10–60 μg of total protein) with His-tagged proteins, 2% BSA, 0.05% Tween 20, overnight; anti-His primary and Hrp-conjugated secondary antibody, absorbance 450/620 nm; only the target purified
T2 sequence: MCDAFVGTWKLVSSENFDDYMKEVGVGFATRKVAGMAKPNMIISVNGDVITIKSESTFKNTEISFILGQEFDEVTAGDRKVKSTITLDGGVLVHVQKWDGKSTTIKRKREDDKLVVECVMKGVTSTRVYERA

A-Fabp^D78G (human) = target: T3, A-Fabp^D78G (human) (UniProt P15090); assay: as above
T3 sequence: T2 sequence with G77D, D78G

A-Fabp^F58S (human) = target: T4, A-Fabp^F58S (human) (UniProt P15090); assay: as above
T4 sequence: T2 sequence with F58S, G77D

A-Fabp^K22E (human) = target: T5, A-Fabp^K22E (human) (UniProt P15090); assay: as above
T5 sequence: T2 sequence with K22E, G77D

A-Fabp^K22E,R31E (human) = target: T6, A-Fabp^K22E,R31E (human) (UniProt P15090); assay: as above
T6 sequence: T2 sequence with K22E, R31E, G77D

A-Fabp^K59E (human) = target: T7, A-Fabp^K59E (human) (UniProt P15090); assay: as above
T7 sequence: T2 sequence with K59E, G77D

A-Fabp^R127Q (human) = target: T8, A-Fabp^R127Q (human) (UniProt P15090); assay: as above
T8 sequence: T2 sequence with G77D, R127Q

A-Fabp^R31E (human) = target: T9, A-Fabp^R31E (human) (UniProt P15090); assay: as above
T9 sequence: T2 sequence with R31E, G77D

E-Fabp (human) = E-Fabp (human) (UniProt Q01469); assay: as above
H-Fabp (human) = H-Fabp (human) (UniProt P05413); assay: as above
I-Fabp (human) = target: T10, I-Fabp (human) (UniProt P12104); assay: as above
T10 sequence: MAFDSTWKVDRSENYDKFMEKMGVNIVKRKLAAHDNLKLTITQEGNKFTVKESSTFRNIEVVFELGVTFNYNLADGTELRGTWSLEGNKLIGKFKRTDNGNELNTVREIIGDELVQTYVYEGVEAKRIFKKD

L-Fabp (human) = target: T11, L-Fabp (human) (UniProt P07148); assay: as above
T11 sequence: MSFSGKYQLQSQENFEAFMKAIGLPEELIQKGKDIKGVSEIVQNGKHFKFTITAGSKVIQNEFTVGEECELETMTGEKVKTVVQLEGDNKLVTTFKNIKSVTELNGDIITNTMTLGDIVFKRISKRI

[2] = target: Strep-tagged A-Fabp (human) (UniProt P15090); assay: as above
purified Atgl = target: T12, purified Atgl (UniProt Q8BJ56); assay: ELISA; competitive solid phase assay: plates coated with 1 μg of purified (partially purified) Atgl; bacterial lysates (60 μg of total protein) containing LacZ, A-Fabp or mCgi-58, the last together with purified Strep-A-Fabp (0.5-, 1- or 5-fold molar excess over Atgl); anti-Strep primary and Hrp-conjugated secondary antibody, absorbance 450/620 nm; only the target purified
T12 sequence: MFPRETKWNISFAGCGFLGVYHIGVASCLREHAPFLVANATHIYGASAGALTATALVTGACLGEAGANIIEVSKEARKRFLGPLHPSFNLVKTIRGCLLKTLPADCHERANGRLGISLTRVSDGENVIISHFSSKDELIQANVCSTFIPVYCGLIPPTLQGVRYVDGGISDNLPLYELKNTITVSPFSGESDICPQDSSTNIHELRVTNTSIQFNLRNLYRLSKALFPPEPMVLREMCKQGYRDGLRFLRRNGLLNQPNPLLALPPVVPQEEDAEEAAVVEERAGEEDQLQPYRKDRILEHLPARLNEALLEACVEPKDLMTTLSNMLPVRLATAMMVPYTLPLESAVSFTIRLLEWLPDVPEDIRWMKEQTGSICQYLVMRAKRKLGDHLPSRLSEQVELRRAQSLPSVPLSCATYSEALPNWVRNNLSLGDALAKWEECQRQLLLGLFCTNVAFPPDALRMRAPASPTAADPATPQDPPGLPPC

binding [1]: binds
Substance: Cgi-58 (endogenous, murine WAT) (from UniProt Q9DBL9 1-351)

binding (A-Fabp^D77G (human)): binds | binding (A-Fabp^D78G (human)): binds | binding (A-Fabp^F58S (human)): binds | binding (A-Fabp^K22E (human)): binds | binding (A-Fabp^K22E,R31E (human)): binds | binding (A-Fabp^K59E (human)): binds | binding (A-Fabp^R127Q (human)): binds | binding (A-Fabp^R31E (human)): binds | binding (E-Fabp (human)): binds | binding (H-Fabp (human)): binds | binding (I-Fabp (human)): binds | binding (L-Fabp (human)): binds | binding [2]: binds
Substance: His-tagged murine Cgi-58 (from UniProt Q9DBL9 1-351)

Substance: His-tagged β-galactosidase (LacZ) (from UniProt P00722 1-1024) (enzyme)
binding [2]: no binding (tested: cell extracts, 10–60 μg of total protein)

Substance: LacZ (bacterial lysate) (from UniProt P00722 1-1024) (enzyme)
binding (purified Atgl): no binding (tested: bacterial lysate, 60 μg of total protein)

Substance: Strep-tagged A-Fabp (from UniProt P15090 1-132)
binding (purified Atgl): no binding (tested: bacterial lysate, 60 μg of total protein)

binding (purified Atgl): binds
Substance: Strep-tagged Cgi-58 (from UniProt Q9DBL9 1-351)
